# From the supplement of paper PMC8728848
# This is one part of the list.
# B1: Epa1to9 (Candida glabrata) (protein)
# chain: MGSSHHHHHHSSGLVPRGSHMTSSNDISLASKDPTTFPLGCSPDITTPKKGLSMELYSYDFRKKGSYPCWDAAYLDPNYPRTGYKSHRLLAKVDGVTGNINFYYHATKGCTPQLGHLPASYNYPKPLTMTNFTMLLYGYFRPKVTGFHTFTISADDLLFVNFGAGNAFDCCRRDSSADHFGNYQAYAIWGSKTAKDELTVHLDAGVYYPIRLFYNNRDYHGALSFTFKTESNENTVSDFSEYFFSLDDTEEGCPGLISYD
# Tests used:
# Test in all cases: glycan array binding signal (z-score within array); higher = stronger binding
# Settings in all cases: glycan notation: IUPAC condensed, linker removed
# [1] = target: Gal(b1-4)GlcNAc(b1-3)Gal(b1-4)GlcNAc(b1-3)Gal(b1-4)GlcNAc(b1-3)Gal(b1-4)GlcNAc(b1-2)Man(a1-3)[Gal(b1-4)GlcNAc(b1-3)Gal(b1-4)GlcNAc(b1-3)Gal(b1-4)GlcNAc(b1-3)Gal(b1-4)GlcNAc(b1-2)Man(a1-6)]Man(b1-4)GlcNAc(b1-4)GlcNAc
# Method in brief: (§1)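 Negative Z-scores can be read as non-binding. The Z-score is calculated within each array and then averaged across arrays of one protein sequence at different concentrations or buffers and across linkers. Arrays, 3228 in all, were curated from the Consortium for Functional Glycomics database and kept only where the protein sequence was available.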
# [2] = target: Gal(b1-4)GlcNAc(b1-3)Gal(b1-4)GlcNAc(b1-3)Gal(b1-4)GlcNAc(b1-3)Gal(b1-4)GlcNAc(b1-2)Man(a1-3)[Gal(b1-4)GlcNAc(b1-3)Gal(b1-4)GlcNAc(b1-3)Gal(b1-4)GlcNAc(b1-3)Gal(b1-4)GlcNAc(b1-2)Man(a1-6)]Man(b1-4)GlcNAc(b1-4)[Fuc(a1-6)]GlcNAc
# Method in brief: as §1
# [3] = target: Gal(b1-4)GlcNAc(b1-3)Gal(b1-4)GlcNAc(b1-3)Gal(b1-4)GlcNAc(b1-3)Gal(b1-4)GlcNAc(b1-2)[Gal(b1-4)GlcNAc(b1-3)Gal(b1-4)GlcNAc(b1-3)Gal(b1-4)GlcNAc(b1-3)Gal(b1-4)GlcNAc(b1-6)]Man(a1-6)[Gal(b1-4)GlcNAc(b1-3)Gal(b1-4)GlcNAc(b1-3)Gal(b1-4)GlcNAc(b1-3)Gal(b1-4)GlcNAc(b1-2)Man(a1-3)]Man(b1-4)GlcNAc(b1-4)[Fuc(a1-6)]GlcNAc
# Method in brief: as §1
# [4] = target: Gal(b1-4)GlcNAc(b1-3)Gal(b1-4)GlcNAc(b1-3)Gal(b1-4)GlcNAc(b1-3)Gal(b1-4)GlcNAc(b1-3)Gal(b1-4)GlcNAc(b1-2)Man(a1-3)[Gal(b1-4)GlcNAc(b1-3)Gal(b1-4)GlcNAc(b1-3)Gal(b1-4)GlcNAc(b1-3)Gal(b1-4)GlcNAc(b1-3)Gal(b1-4)GlcNAc(b1-2)Man(a1-6)]Man(b1-4)GlcNAc(b1-4)GlcNAc
# Method in brief: as §1
# [5] = target: Gal(b1-4)GlcNAc(b1-3)Gal(b1-4)GlcNAc(b1-3)Gal(b1-4)GlcNAc(b1-3)Gal(b1-4)GlcNAc(b1-3)Gal(b1-4)GlcNAc(b1-2)Man(a1-3)[Gal(b1-4)GlcNAc(b1-3)Gal(b1-4)GlcNAc(b1-3)Gal(b1-4)GlcNAc(b1-3)Gal(b1-4)GlcNAc(b1-3)Gal(b1-4)GlcNAc(b1-2)Man(a1-6)]Man(b1-4)GlcNAc(b1-4)[Fuc(a1-6)]GlcNAc
# Method in brief: as §1
# [6] = target: Gal(b1-4)GlcNAc(b1-3)Gal(b1-4)GlcNAc(b1-3)Gal(b1-4)GlcNAc(b1-3)Gal(b1-4)GlcNAc(b1-3)Gal(b1-4)GlcNAc(b1-2)[Gal(b1-4)GlcNAc(b1-3)Gal(b1-4)GlcNAc(b1-3)Gal(b1-4)GlcNAc(b1-3)Gal(b1-4)GlcNAc(b1-3)Gal(b1-4)GlcNAc(b1-6)]Man(a1-6)[Gal(b1-4)GlcNAc(b1-3)Gal(b1-4)GlcNAc(b1-3)Gal(b1-4)GlcNAc(b1-3)Gal(b1-4)GlcNAc(b1-3)Gal(b1-4)GlcNAc(b1-2)Man(a1-3)]Man(b1-4)GlcNAc(b1-4)[Fuc(a1-6)]GlcNAc
# Method in brief: as §1
# [7] = target: Gal(b1-4)GlcNAc(b1-3)Gal(b1-4)GlcNAc(b1-3)Gal(b1-4)GlcNAc(b1-3)Gal(b1-4)GlcNAc(b1-3)Gal(b1-4)GlcNAc(b1-3)Gal(b1-4)GlcNAc(b1-2)Man(a1-3)[Gal(b1-4)GlcNAc(b1-3)Gal(b1-4)GlcNAc(b1-3)Gal(b1-4)GlcNAc(b1-3)Gal(b1-4)GlcNAc(b1-3)Gal(b1-4)GlcNAc(b1-3)Gal(b1-4)GlcNAc(b1-2)Man(a1-6)]Man(b1-4)GlcNAc(b1-4)GlcNAc
# Method in brief: as §1
# [8] = target: Gal(b1-4)GlcNAc(b1-3)Gal(b1-4)GlcNAc(b1-3)GalNAc
# Method in brief: as §1
# [9] = target: Gal(b1-4)GlcNAc(b1-3)Gal(b1-4)GlcNAc(b1-3)[Gal(b1-4)GlcNAc(b1-3)Gal(b1-4)GlcNAc(b1-6)]GalNAc
# Method in brief: as §1
# [10] = target: Gal(b1-4)GlcNAc(b1-3)Gal(b1-4)GlcNAc(b1-6)[Gal(b1-3)]GalNAc
# Method in brief: as §1
# [11] = target: Gal(b1-4)GlcNAc(b1-3)Gal(b1-4)[Fuc(a1-3)]GlcNAc(b1-3)Gal(b1-4)[Fuc(a1-3)]GlcNAc
# Method in brief: as §1
# [12] = target: Gal(b1-4)GlcNAc(b1-3)GalNAc
# Method in brief: as §1
# [13] = target: Gal(b1-4)GlcNAc(b1-3)[Fuc(a1-3)GlcNAc(b1-6)]Gal(b1-4)Glc
# Method in brief: as §1
# [14] = target: Gal(b1-4)GlcNAc(b1-3)[Gal(b1-4)GlcNAc(b1-6)]Gal(b1-4)GlcNAc
# Method in brief: as §1
# [15] = target: Gal(b1-4)GlcNAc(b1-3)[GlcNAc(b1-6)]Gal(b1-4)GlcNAc
# Method in brief: as §1
# [16] = target: Gal(b1-4)GlcNAc(b1-6)Gal(b1-4)GlcNAc
# Method in brief: as §1
# [17] = target: Gal(b1-4)GlcNAc(b1-6)GalNAc
# Method in brief: as §1
# [18] = target: Gal(b1-4)GlcNAc(b1-6)[Gal(b1-3)]GalNAc
# Method in brief: as §1
# [19] = target: Gal(b1-4)GlcNAc(b1-6)[Gal(b1-4)GlcNAc(b1-3)]GalNAc
# Method in brief: as §1
# Gal(b1-4)GlcNAc6P = target: Gal(b1-4)GlcNAc6P
# Method in brief: as §1
# Gal(b1-6)Gal = target: Gal(b1-6)Gal
# Method in brief: as §1
# Gal3S(b1-3)GalNAc = target: Gal3S(b1-3)GalNAc
# Method in brief: as §1
# Gal3S(b1-3)GlcNAc = target: Gal3S(b1-3)GlcNAc
# Method in brief: as §1
# [20] = target: Gal3S(b1-3)[Fuc(a1-4)]GlcNAc
# Method in brief: as §1
# Gal3S(b1-4)Glc = target: Gal3S(b1-4)Glc
# Method in brief: as §1
# Gal3S(b1-4)Glc6S = target: Gal3S(b1-4)Glc6S
# Method in brief: as §1
# Gal3S(b1-4)GlcNAc = target: Gal3S(b1-4)GlcNAc
# Method in brief: as §1
# [21] = target: Gal3S(b1-4)[Fuc(a1-3)]Glc6S
# Method in brief: as §1
# [22] = target: Gal3S(b1-4)[Fuc(a1-3)]GlcNAc
# Method in brief: as §1
# [23] = target: Gal3S(b1-4)[Fuc(a1-3)]GlcNAc6S
# Method in brief: as §1
# Gal3S4S(b1-4)GlcNAc = target: Gal3S4S(b1-4)GlcNAc
# Method in brief: as §1
# Gal3S6S(b1-4)GlcNAc = target: Gal3S6S(b1-4)GlcNAc
# Method in brief: as §1
# Gal3S6S(b1-4)GlcNAc6S = target: Gal3S6S(b1-4)GlcNAc6S
# Method in brief: as §1
# Gal4S(b1-4)GlcNAc = target: Gal4S(b1-4)GlcNAc
# Method in brief: as §1
# Gal4S6S(b1-4)GlcNAc = target: Gal4S6S(b1-4)GlcNAc
# Method in brief: as §1
# Gal6P(b1-4)GlcNAc = target: Gal6P(b1-4)GlcNAc
# Method in brief: as §1
# Gal6S(b1-3)GlcNAc = target: Gal6S(b1-3)GlcNAc
# Method in brief: as §1
# Gal6S(b1-3)GlcNAc6S = target: Gal6S(b1-3)GlcNAc6S
# Method in brief: as §1
binder,measurement,setting,value
B1,glycan array binding signal (z-score),[1],-0.075
same,glycan array binding signal (z-score),[2],0.011
same,glycan array binding signal (z-score),[3],0.242
same,glycan array binding signal (z-score),[4],0.122
same,glycan array binding signal (z-score),[5],-0.083
same,glycan array binding signal (z-score),[6],0.276
same,glycan array binding signal (z-score),[7],0.187
same,glycan array binding signal (z-score),[8],-0.089
same,glycan array binding signal (z-score),[9],0.572
same,glycan array binding signal (z-score),[10],0.549
same,glycan array binding signal (z-score),[11],-0.103
same,glycan array binding signal (z-score),[12],0.134
same,glycan array binding signal (z-score),[13],-0.065
same,glycan array binding signal (z-score),[14],-0.155
same,glycan array binding signal (z-score),[15],0.461
same,glycan array binding signal (z-score),[16],1.99
same,glycan array binding signal (z-score),[17],-0.027
same,glycan array binding signal (z-score),[18],1.69
same,glycan array binding signal (z-score),[19],0.209
same,glycan array binding signal (z-score),Gal(b1-4)GlcNAc6P,-0.321
same,glycan array binding signal (z-score),Gal(b1-6)Gal,0.228
same,glycan array binding signal (z-score),Gal3S(b1-3)GalNAc,-0.355
same,glycan array binding signal (z-score),Gal3S(b1-3)GlcNAc,-0.37
same,glycan array binding signal (z-score),[20],-0.345
same,glycan array binding signal (z-score),Gal3S(b1-4)Glc,-0.283
same,glycan array binding signal (z-score),Gal3S(b1-4)Glc6S,-0.343
same,glycan array binding signal (z-score),Gal3S(b1-4)GlcNAc,-0.465
same,glycan array binding signal (z-score),[21],-0.259
same,glycan array binding signal (z-score),[22],-0.406
same,glycan array binding signal (z-score),[23],-0.179
same,glycan array binding signal (z-score),Gal3S4S(b1-4)GlcNAc,-0.347
same,glycan array binding signal (z-score),Gal3S6S(b1-4)GlcNAc,-0.316
same,glycan array binding signal (z-score),Gal3S6S(b1-4)GlcNAc6S,0.525
same,glycan array binding signal (z-score),Gal4S(b1-4)GlcNAc,-0.232
same,glycan array binding signal (z-score),Gal4S6S(b1-4)GlcNAc,-0.373
same,glycan array binding signal (z-score),Gal6P(b1-4)GlcNAc,0.026
same,glycan array binding signal (z-score),Gal6S(b1-3)GlcNAc,2.49
same,glycan array binding signal (z-score),Gal6S(b1-3)GlcNAc6S,4.86
